In paper PMC4336329 (PLoS ONE, 2015):
The whole screen tested about 310,000 compounds, of which about 14,000 (4.5%) showed an effect of 50% or more. Effects have a minus sign here. The list shows a part of the results.

target: human ether-à-go-go-related gene (hERG) potassium channel (human, UniProt Q12809); test: primary screen, population patch clamp on CHO cells stably expressing hERG
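Further: peak tail current of the secondary pulse compared with the same well before compound.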

Chain of human ether-à-go-go-related gene (hERG) potassium channel (Q12809 whole entry, looked up): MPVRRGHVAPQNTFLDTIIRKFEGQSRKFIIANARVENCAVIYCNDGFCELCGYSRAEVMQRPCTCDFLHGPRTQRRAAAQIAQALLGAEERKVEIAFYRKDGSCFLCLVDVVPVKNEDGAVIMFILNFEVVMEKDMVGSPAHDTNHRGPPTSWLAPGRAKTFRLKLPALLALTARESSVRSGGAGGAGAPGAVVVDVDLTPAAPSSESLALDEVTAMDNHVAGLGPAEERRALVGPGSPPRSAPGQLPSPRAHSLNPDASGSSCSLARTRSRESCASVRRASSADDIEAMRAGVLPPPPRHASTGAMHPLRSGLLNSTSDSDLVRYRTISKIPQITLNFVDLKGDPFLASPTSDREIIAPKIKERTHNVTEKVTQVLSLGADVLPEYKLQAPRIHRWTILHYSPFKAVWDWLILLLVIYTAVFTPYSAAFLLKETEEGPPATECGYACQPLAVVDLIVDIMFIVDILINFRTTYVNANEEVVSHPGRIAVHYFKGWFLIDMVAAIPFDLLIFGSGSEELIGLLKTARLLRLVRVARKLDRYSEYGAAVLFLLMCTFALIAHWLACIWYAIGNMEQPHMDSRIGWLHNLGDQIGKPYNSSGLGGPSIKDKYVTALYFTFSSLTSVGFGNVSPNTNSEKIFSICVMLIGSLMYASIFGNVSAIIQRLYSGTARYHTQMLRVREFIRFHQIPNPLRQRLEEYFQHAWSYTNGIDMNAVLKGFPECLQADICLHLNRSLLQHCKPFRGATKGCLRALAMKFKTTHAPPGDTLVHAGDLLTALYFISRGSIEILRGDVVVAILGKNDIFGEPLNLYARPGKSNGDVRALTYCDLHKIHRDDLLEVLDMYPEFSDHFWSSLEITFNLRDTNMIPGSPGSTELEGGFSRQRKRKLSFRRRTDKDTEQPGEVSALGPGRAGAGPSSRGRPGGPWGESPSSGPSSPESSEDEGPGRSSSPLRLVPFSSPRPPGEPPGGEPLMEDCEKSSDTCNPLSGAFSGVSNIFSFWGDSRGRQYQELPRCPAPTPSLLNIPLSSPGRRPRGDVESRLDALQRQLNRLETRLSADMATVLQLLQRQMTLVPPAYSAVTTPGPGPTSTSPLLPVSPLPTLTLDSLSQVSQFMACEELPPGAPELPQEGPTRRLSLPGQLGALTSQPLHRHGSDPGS

| Structure (SMILES) | hERG current change (%, negative = inhibition) at 10uM |
| --- | --- |
| CCc1c(C)[nH]c2ccc(C)cc2c1=O | 21.4% |
| CC(C)C(NC(=O)C1CCCCC1)C(=O)NC1CCCC(C)C1C (stereo not drawn) | 25.3% |
| Cc1cc(Cl)ccc1OCC(=O)Nc1nc(-c2cccs2)cs1 | 15.6% |
| COc1ccc(N(CC(=O)NCc2ccco2)S(=O)(=O)c2c(C)nn(C)c2C)cc1 | 10.6% |
| CCOc1ccc2c(c1)c(=O)c(S(=O)(=O)c1ccc(C)cc1)cn2CC | -23% |
| COc1ccc(CCNC(=O)Cn2cnc3c(nnn3Cc3ccccc3F)c2=O)cc1OC | 6.55% |
| Cc1nn(Cc2ccc(C(=O)N3CCN(C(=O)c4ccco4)CC3)o2)c(C)c1[N+](=O)[O-] | -32.6% |
| CCOc1ncccc1C(=O)Nc1ccc(C)c(S(=O)(=O)N2CCCCCC2)c1 | -10.6% |
| CCOc1ccc(NC(=O)NCCCSC2CCCCC2)cc1 | -2.88% |
| Cc1ccc(CSc2cc(C)[nH]c(=O)n2)cc1 | 8.93% |
| COc1ccc(OC)c(NC2=NC3(CCCC3)N=C(N)N2)c1 | 21.2% |
| COc1ccccc1NC(=O)CN(c1ccc(C)cc1)S(=O)(=O)c1c(C)n[nH]c1C | -5.7% |
| FC(F)(F)c1cccc(OCCN2CCN(Cc3ccccc3)CC2)c1.O=C(O)C(=O)O | -40.8% |
| Cc1c(Cl)cccc1N1CC(C)(C)C1=O | -2.95% |
| O=C1NC(c2ccccn2)Nc2sc3c(c21)CCC3 (stereo not drawn) | 13.9% |
| Brc1ccccc1-n1nnc(-c2ccnc3ccccc23)n1 | 7.38% |
| CCC(C)NC(=O)Cn1c(=O)sc2ccccc21 (stereo not drawn) | 4.15% |
| O=C(c1cccs1)N1CCc2c([nH]c3ccccc23)C1c1ccc(Cl)cc1 (stereo not drawn) | 6.41% |
| COc1cccc(C(=O)NC(=S)N2CCN(c3ccc(C(F)(F)F)cc3[N+](=O)[O-])CC2)c1 | 1.6% |

| Structure (SMILES) | hERG current change (%, negative = inhibition) at 10uM |
| --- | --- |
| Nc1cc2c(cc1O)CCCC2 | 26.8% |
| Cc1ccc(-n2c(SCC(=O)Nc3ccc(Cl)cc3)nc(O)cc2=O)cc1 | 9.08% |
| O=C(c1ccc(N2CCCCS2(=O)=O)cc1)N1CCN(c2ccc(N3CCOCC3)nn2)CC1 | 19.7% |
| Cc1ccc(NS(=O)(=O)c2ccc(C(=O)NCc3ccncc3)cc2)cc1 | 5.69% |
| Cc1ccnc(NC(=S)NC(=O)/C=C/c2ccc(Cl)cc2)c1 | -14.4% |
| COc1cc(C2C3=C(CC(C)(C)CC3=O)N(C)C3=C2C(=O)CC(C)(C)C3)cc(Br)c1O | -17.5% |
| Cc1cnc([N+](=O)[O-])n1CCOC(=O)c1cccc(F)c1 | -3.45% |
| O=C(NC1CCS(=O)(=O)C1)/C(=C/c1ccco1)NC(=O)c1ccccc1 (stereo not drawn) | 11.2% |
| O=C1CC(N2CCCCCC2)C(=O)N1c1ccc(F)cc1 (stereo not drawn) | 14.4% |
| O=S(=O)(Nc1nc2ccc(Cl)cc2s1)c1cccs1 | 18.5% |
| COc1cc2cc(CCCOC(=O)c3ccc(Br)cc3)oc(=O)c2cc1OC | -8.44% |
| CC1(C)NC(=O)N(CC(O)COc2ccccc2[N+](=O)[O-])C1=O (stereo not drawn) | 10.2% |
| Cc1ccc(Cn2c(O)c(N=O)c3ccccc32)cc1 | 1.91% |
| COc1ccccc1-n1c(SCC(=O)N2CCCCC2)nc2cccnc21 | -0.485% |
| Cc1ccc(NS(=O)(=O)c2ccc3c(c2)NC(=O)CO3)cc1C | 14.6% |
| CC/C(C)=N\Nc1nc(-c2cc3cc(OC)ccc3oc2=O)cs1 | 7.11% |
| O=C(NNc1nc2ccccc2s1)c1ccc(F)cc1 | -19% |
| CCOC(=O)N1CCN(C(=O)CNC(=O)c2nn(-c3ccc(OC)c(OC)c3)c(=O)c3ccccc23)CC1 | 8.5% |
| O=C(OCCN1C(=O)c2ccccc2C1=O)c1cc(S(=O)(=O)N2CCOCC2)ccc1F | -31.7% |

| Structure (SMILES) | hERG current change (%, negative = inhibition) at 10uM |
| --- | --- |
| C[C@@H](O)[C@@H]1NC(=O)c2cc([N+](=O)[O-])cc(I)c2NCC[C@@H](C(N)=O)NC(=O)CNC1=O | 2.05% |
| CCCCCCCN1C=CC(=O)CC1 | 8.78% |
| CC1(C)Cc2noc(N)c2C(C)(C)N1OC(=O)c1ccco1 | 7.3% |
| O=C(CNS(=O)(=O)c1ccccc1)N/N=C/c1ccc(O)cc1 | -0.142% |
| O=C(Nc1ccc(S(=O)(=O)N2CCOCC2)cc1)c1c(F)cccc1F | -22.1% |
| COc1ccc(C(=O)N2CCN(S(=O)(=O)c3ccc(Br)cc3)CC2)cc1 | -30% |
| CC1(C)C(=O)OC(C(=O)c2ccc(Cl)cc2)C(C)(C)C1=O (stereo not drawn) | 3.02% |
| C/C(=N\NC(=O)Cc1ccccc1[N+](=O)[O-])c1cccnc1 | 5.63% |
| CCOP(=O)(OCC)/C(=N/OC(=O)c1ccc(Cl)cc1Cl)C(N)=O | 13.1% |
| C/C(=N\OCC(=O)N/N=C/c1ccccc1)c1cccs1 | 0.637% |
| Cc1ccc2c(CC(=O)O)coc2c1C | -2.54% |
| CCOc1cc(/C=N\NC(=O)c2ccc(NC(=O)CC)cc2)ccc1OC(=O)c1ccccc1 | 8.01% |
| Cc1[nH]c2ccccc2c(=O)c1C(=O)/C=C/c1ccccc1 | -17.7% |
| CN(C)/C(CN1CCOCC1)=C1\N=C(c2ccccc2)OC1=O | -4.38% |
| Cl.O=C(NCCN1CCNCC1)c1ccccn1 | 13.1% |
| CCN(CC)CCNC(=O)c1ccc(CS(=O)(=O)c2ccc(Br)cc2)o1 | -46.5% |
| CN(C)S(=O)(=O)c1ccc(Cl)c(C(=O)NCCNC(=O)c2cc(S(=O)(=O)N(C)C)ccc2Cl)c1 | 26.5% |
| COc1ccccc1Cn1cnc2cccnc21 | 13.5% |
| Cn1c(=O)c(C(=O)NCc2ccccc2)c(O)c2ccccc21 | 11.4% |
